Assay results taken from the supplement of paper PMC10037445.
Values joined by “and” are separate entries in the source; they are usually repeats but may differ in a detail not shown here. Identical values can stand only once. ± gives the standard deviation of the averaged measurements. Over roughly 2,900 compounds, “IRF Lucia reporter activity, fold change vs agonist alone” has its median near 0.9; the highest 2% begin near 2.8. Some of the results follow.

Assays:
[1] = system: RAW-Dual; test: IRF Lucia reporter activity, fold change vs agonist alone; higher = enhanced IRF activity; details: agonist: MPLA (TLR4) […]
Procedure, shortened: (§1)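 Supernatant from RAW-Dual macrophages was read after 20 hours for IRF by QuantiLuc luminescence and for NF-κB by QuantiBlue absorbance at 620 nm. The cells (50,000 cells/well in DMEM, 384-well plates, 37 °C, 5% CO2) had received 50 nL of library stock by pin tool and, 1 h later, a PRR agonist. Reporter activity is expressed relative to agonist-alone wells as fold change, and wells were flagged cytotoxic if IncuCyte confluency was under 70% of agonist controls in both mask sets.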

[2] = system: RAW-Dual; test: IRF Lucia reporter activity, fold change vs agonist alone; cytotoxicity flag (confluency mask): not cytotoxic; higher = enhanced IRF activity
Procedure, shortened: as §1

[3] = system: RAW-Dual; test: IRF Lucia reporter activity, fold change vs agonist alone; cytotoxicity flag (confluency mask): cytotoxic (confluency <70% of control); higher = enhanced IRF activity
Procedure, shortened: as §1

[4] = library stock concentration (final ~1000-fold dilution): 10 mM, cytotoxicity flag (confluency mask): not cytotoxic
[5] = agonist: 3'3'-cGAMP (STING) 10 ug/mL
[6] = library stock concentration (final ~1000-fold dilution): 10 mM, cytotoxicity flag (confluency mask): cytotoxic (confluency <70% of control)
[7] = library stock concentration (final ~1000-fold dilution): 2 mM, cytotoxicity flag (confluency mask): not cytotoxic

SMILES: COC(=O)C1=C(C)NC(C)=C(C(=O)OCCN2CCN(C(c3ccccc3)c3ccccc3)CC2)C1c1cccc([N+](=O)[O-])c1 (stereo not drawn)
- IRF Lucia reporter activity [1, 4]: 0.829

SMILES: COC(=O)C1=C(C)NC(C)=C(C(=O)OCCN2CCN(C(c3ccccc3)c3ccccc3)CC2)C1c1cccc([N+](=O)[O-])c1 (stereo not drawn) (library stock concentration (final ~1000-fold dilution): 10 mM)
- IRF Lucia reporter activity [2, 5]: 0.122
- IRF Lucia reporter activity ([2]; agonist: LPS (TLR4) 0.1 ug/mL): 0.911

SMILES: CCOc1nc2cccc(C(=O)OC(C)OC(=O)OC3CCCCC3)c2n1Cc1ccc(-c2ccccc2-c2nnn[nH]2)cc1 (stereo not drawn) (library stock concentration (final ~1000-fold dilution): 10 mM)
- IRF Lucia reporter activity [3, 5]: 0.498
- IRF Lucia reporter activity ([3]; agonist: LPS (TLR4) 0.1 ug/mL): 1.13

SMILES: CCOc1nc2cccc(C(=O)OC(C)OC(=O)OC3CCCCC3)c2n1Cc1ccc(-c2ccccc2-c2nnn[nH]2)cc1 (stereo not drawn)
- IRF Lucia reporter activity [1, 6]: 0.792

SMILES: Cn1cc(CC(N)C(=O)O)c2ccccc21 (stereo not drawn) (library stock concentration (final ~1000-fold dilution): 2 mM)
- IRF Lucia reporter activity [2, 5]: 0.96
- IRF Lucia reporter activity ([2]; agonist: LPS (TLR4) 0.1 ug/mL): 0.943

SMILES: Cc1ccccc1-c1cc(N2CCN(C)CC2)ncc1N(C)C(=O)C(C)(C)c1cc(C(F)(F)F)cc(C(F)(F)F)c1
- IRF Lucia reporter activity [1, 7]: 1.2

SMILES: Cc1ccccc1-c1cc(N2CCN(C)CC2)ncc1N(C)C(=O)C(C)(C)c1cc(C(F)(F)F)cc(C(F)(F)F)c1 (library stock concentration (final ~1000-fold dilution): 2 mM)
- IRF Lucia reporter activity [2, 5]: 0.804
- IRF Lucia reporter activity ([2]; agonist: LPS (TLR4) 0.1 ug/mL): 1.14

SMILES: O=C(OC1CN2CCC1CC2)N1CCc2ccccc2C1c1ccccc1 (stereo not drawn)
- IRF Lucia reporter activity [1, 6]: 1.48

SMILES: O=C(OC1CN2CCC1CC2)N1CCc2ccccc2C1c1ccccc1 (stereo not drawn) (library stock concentration (final ~1000-fold dilution): 10 mM)
- IRF Lucia reporter activity [3, 5]: 0.542
- IRF Lucia reporter activity ([3]; agonist: LPS (TLR4) 0.1 ug/mL): 1.81

SMILES: CC(C(=O)O)c1ccc2c(c1)Cc1cccnc1O2 (stereo not drawn) (library stock concentration (final ~1000-fold dilution): 10 mM)
- IRF Lucia reporter activity [2, 5]: 1.06
- IRF Lucia reporter activity ([2]; agonist: LPS (TLR4) 0.1 ug/mL): 0.902

SMILES: CC(C(=O)O)c1ccc2c(c1)Cc1cccnc1O2 (stereo not drawn)
- IRF Lucia reporter activity [1, 4]: 0.957

SMILES: CC(C)(C)C(=O)Oc1ccc(S(=O)(=O)Nc2ccccc2C(=O)NCC(=O)O)cc1 (library stock concentration (final ~1000-fold dilution): 10 mM)
- IRF Lucia reporter activity [2, 5]: 1.1 and 1.19
- IRF Lucia reporter activity ([2]; agonist: LPS (TLR4) 0.1 ug/mL): 1.16 and 1.32

SMILES: CC(C)(C)C(=O)Oc1ccc(S(=O)(=O)Nc2ccccc2C(=O)NCC(=O)O)cc1
- IRF Lucia reporter activity [1, 4]: 1.07

SMILES: O=C(N/N=C/c1cc(O)c(O)cc1O)c1cc2ccccc2cc1O (library stock concentration (final ~1000-fold dilution): 10 mM)
- IRF Lucia reporter activity [2, 5]: 0.396
- IRF Lucia reporter activity ([2]; agonist: LPS (TLR4) 0.1 ug/mL): 0.944

SMILES: O=C(N/N=C/c1cc(O)c(O)cc1O)c1cc2ccccc2cc1O
- IRF Lucia reporter activity [1, 4]: 1.02

SMILES: COc1cc(O)c2c(c1)oc(=O)c1c3cc(O)c(O)cc3oc21 (library stock concentration (final ~1000-fold dilution): 10 mM)
- IRF Lucia reporter activity [2, 5]: 0.343
- IRF Lucia reporter activity ([2]; agonist: LPS (TLR4) 0.1 ug/mL): 0.684

SMILES: N=C(N)Nc1nc(CSCCC(=N)NS(N)(=O)=O)cs1 (library stock concentration (final ~1000-fold dilution): 10 mM)
- IRF Lucia reporter activity [2, 5]: 1.11
- IRF Lucia reporter activity ([2]; agonist: LPS (TLR4) 0.1 ug/mL): 0.978

SMILES: N=C(N)Nc1nc(CSCCC(=N)NS(N)(=O)=O)cs1
- IRF Lucia reporter activity [1, 4]: 0.972

SMILES: O=C(/C=C/c1ccc2ccccc2n1)c1ccncc1
- IRF Lucia reporter activity [1, 4]: 0.162

SMILES: O=C(/C=C/c1ccc2ccccc2n1)c1ccncc1 (library stock concentration (final ~1000-fold dilution): 10 mM)
- IRF Lucia reporter activity [2, 5]: 0.164
- IRF Lucia reporter activity ([2]; agonist: LPS (TLR4) 0.1 ug/mL): 0.307

SMILES: Cc1cc(C(N)=O)ccc1-n1c(CCC(=O)O)ccc1-c1ccc(-n2ccnc2)cc1 (library stock concentration (final ~1000-fold dilution): 10 mM)
- IRF Lucia reporter activity [2, 5]: 0.983
- IRF Lucia reporter activity ([2]; agonist: LPS (TLR4) 0.1 ug/mL): 1.08

SMILES: N=C(N)NCCCCC1NC(=O)CCSSCC(C(N)=O)NC(=O)C2CCCN2C(=O)C(Cc2c[nH]c3ccccc23)NC(=O)C(CC(=O)O)NC(=O)CNC1=O (stereo not drawn) (library stock concentration (final ~1000-fold dilution): 10 mM water)
- IRF Lucia reporter activity [2, 5]: 1.52
- IRF Lucia reporter activity ([2]; agonist: LPS (TLR4) 0.1 ug/mL): 1

SMILES: CCOC(=O)/C=C\C(=O)OCC (library stock concentration (final ~1000-fold dilution): 10 mM)
- IRF Lucia reporter activity [2, 5]: 0.722 ± 0.28
- IRF Lucia reporter activity ([2]; agonist: LPS (TLR4) 0.1 ug/mL): 1.09 ± 0.084

SMILES: CCOC(=O)/C=C\C(=O)OCC
- IRF Lucia reporter activity [1, 4]: 1.34 ± 0.59

SMILES: Cc1n[nH]c2ccc(-c3cncc(OCC(N)Cc4ccccc4)c3)cc12 (stereo not drawn)
- IRF Lucia reporter activity [1, 4]: 1.15

SMILES: Cc1n[nH]c2ccc(-c3cncc(OCC(N)Cc4ccccc4)c3)cc12 (stereo not drawn) (library stock concentration (final ~1000-fold dilution): 10 mM)
- IRF Lucia reporter activity [2, 5]: 1.03
- IRF Lucia reporter activity ([2]; agonist: LPS (TLR4) 0.1 ug/mL): 0.0165

SMILES: O=C(/C=C/c1ccc(O)c(O)c1)O[C@@H](C(=O)O)[C@@H](OC(=O)/C=C/c1ccc(O)c(O)c1)C(=O)O (library stock concentration (final ~1000-fold dilution): 10 mM)
- IRF Lucia reporter activity [2, 5]: 1.18
- IRF Lucia reporter activity ([2]; agonist: LPS (TLR4) 0.1 ug/mL): 1.37

SMILES: Cc1ccc(-c2csc(NC(=O)c3ccccc3)n2)c(C)c1 (library stock concentration (final ~1000-fold dilution): 10 mM)
- IRF Lucia reporter activity [2, 5]: 1.43
- IRF Lucia reporter activity ([2]; agonist: LPS (TLR4) 0.1 ug/mL): 0.99

SMILES: Cc1ccc(-c2csc(NC(=O)c3ccccc3)n2)c(C)c1
- IRF Lucia reporter activity [1, 4]: 0.893

SMILES: CC(=O)NC1=NN(C(C)=O)C(C)(c2ccccc2)S1 (stereo not drawn)
- IRF Lucia reporter activity [1, 4]: 0.893

SMILES: CC(=O)NC1=NN(C(C)=O)C(C)(c2ccccc2)S1 (stereo not drawn) (library stock concentration (final ~1000-fold dilution): 10 mM)
- IRF Lucia reporter activity [2, 5]: 0.545
- IRF Lucia reporter activity ([2]; agonist: LPS (TLR4) 0.1 ug/mL): 0.849

SMILES: NC(Cc1ccc(Cl)cc1)C(=O)O (stereo not drawn) (library stock concentration (final ~1000-fold dilution): 10 mM)
- IRF Lucia reporter activity [2, 5]: 1.04
- IRF Lucia reporter activity ([2]; agonist: LPS (TLR4) 0.1 ug/mL): 1.25

SMILES: NC(Cc1ccc(Cl)cc1)C(=O)O (stereo not drawn)
- IRF Lucia reporter activity [1, 4]: 1.03

SMILES: O=c1cc(N2CCOCC2)oc2c(-c3cccc4c3sc3ccccc34)cccc12
- IRF Lucia reporter activity [1, 7]: 2.7

SMILES: O=c1cc(N2CCOCC2)oc2c(-c3cccc4c3sc3ccccc34)cccc12 (library stock concentration (final ~1000-fold dilution): 2 mM)
- IRF Lucia reporter activity [2, 5]: 0.548
- IRF Lucia reporter activity ([2]; agonist: LPS (TLR4) 0.1 ug/mL): 7.23

SMILES: CCCCc1nc(-c2ccc(OCCCN(CC)CC)cc2)cn1-c1ccc(Oc2ccc(Cl)cc2)cc1
- IRF Lucia reporter activity [1, 6]: 0.21

SMILES: CCCCc1nc(-c2ccc(OCCCN(CC)CC)cc2)cn1-c1ccc(Oc2ccc(Cl)cc2)cc1 (library stock concentration (final ~1000-fold dilution): 10 mM)
- IRF Lucia reporter activity [3, 5]: 0.691
- IRF Lucia reporter activity ([3]; agonist: LPS (TLR4) 0.1 ug/mL): 0.116
